# According to the supplement of paper PMC8728848:
# The other results are listed elsewhere or left out.
# Key:
# Assay in all cases: glycan array binding signal (z-score within array); higher = stronger binding
# Conditions in all cases: glycan notation: IUPAC condensed, linker removed
# [1] = molecular target: Gal(b1-4)GlcNAc(b1-3)Gal(b1-4)[Fuc(a1-3)]GlcNAc(b1-3)Gal(b1-4)[Fuc(a1-3)]GlcNAc
# Outline: (§1)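 The binding signal is a Z-score computed within each array and averaged over linkers. Arrays of the same protein sequence at different concentrations or buffers were also averaged together. Data originate from 3228 arrays in the Consortium for Functional Glycomics database, kept only where the protein sequence was available.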
# [2] = molecular target: Gal(b1-4)GlcNAc(b1-3)GalNAc
# Outline: as §1
# [3] = molecular target: Gal(b1-4)GlcNAc(b1-3)[Gal(b1-4)GlcNAc(b1-6)]GalNAc
# Outline: as §1
# [4] = molecular target: Gal(b1-4)GlcNAc(b1-6)Gal(b1-4)GlcNAc(b1-6)GalNAc
# Outline: as §1
# [5] = molecular target: Gal(b1-4)GlcNAc(b1-6)GalNAc
# Outline: as §1
# [6] = molecular target: Gal(b1-4)GlcNAc(b1-6)[Gal(b1-3)]GalNAc
# Outline: as §1
# [7] = molecular target: Gal(b1-4)GlcNAc(b1-6)[Gal(b1-3)]GlcNAc
# Outline: as §1
# Gal3S(b1-3)GalNAc = molecular target: Gal3S(b1-3)GalNAc
# Outline: as §1
# Gal3S(b1-3)GlcNAc = molecular target: Gal3S(b1-3)GlcNAc
# Outline: as §1
# [8] = molecular target: Gal3S(b1-3)[Fuc(a1-4)]GlcNAc
# Outline: as §1
# Gal3S(b1-4)Glc = molecular target: Gal3S(b1-4)Glc
# Outline: as §1
# Gal3S(b1-4)Glc6S = molecular target: Gal3S(b1-4)Glc6S
# Outline: as §1
# Gal3S(b1-4)GlcNAc = molecular target: Gal3S(b1-4)GlcNAc
# Outline: as §1
# Gal3S(b1-4)GlcNAc6S = molecular target: Gal3S(b1-4)GlcNAc6S
# Outline: as §1
# Gal3S6S(b1-4)GlcNAc = molecular target: Gal3S6S(b1-4)GlcNAc
# Outline: as §1
# Gal3S6S(b1-4)GlcNAc6S = molecular target: Gal3S6S(b1-4)GlcNAc6S
# Outline: as §1
# Gal4S(b1-4)GlcNAc = molecular target: Gal4S(b1-4)GlcNAc
# Outline: as §1
# Gal4S6S(b1-4)GlcNAc = molecular target: Gal4S6S(b1-4)GlcNAc
# Outline: as §1
# Gal6S(b1-4)Glc = molecular target: Gal6S(b1-4)Glc
# Outline: as §1
# Gal6S(b1-4)Glc6S = molecular target: Gal6S(b1-4)Glc6S
# Outline: as §1
# Gal6S(b1-4)GlcNAc = molecular target: Gal6S(b1-4)GlcNAc
# Outline: as §1
# GalNAc(a1-3)Gal = molecular target: GalNAc(a1-3)Gal
# Outline: as §1
# GalNAc(a1-3)GalNAc = molecular target: GalNAc(a1-3)GalNAc
# Outline: as §1
# [9] = molecular target: GalNAc(b1-3)Gal(a1-4)Gal(b1-4)GlcNAc
# Outline: as §1
# GalNAc(b1-3)GalNAc = molecular target: GalNAc(b1-3)GalNAc
# Outline: as §1
# GalNAc(b1-4)GlcNAc = molecular target: GalNAc(b1-4)GlcNAc
# Outline: as §1
# Glc(a1-4)Glc = molecular target: Glc(a1-4)Glc
# Outline: as §1
# Glc(a1-6)Glc(a1-6)Glc = molecular target: Glc(a1-6)Glc(a1-6)Glc
# Outline: as §1
# Glc(b1-4)Glc = molecular target: Glc(b1-4)Glc
# Outline: as §1
# Glc(b1-6)Glc = molecular target: Glc(b1-6)Glc
# Outline: as §1
# GlcA(b1-3)Gal = molecular target: GlcA(b1-3)Gal
# Outline: as §1
# GlcA(b1-6)Gal = molecular target: GlcA(b1-6)Gal
# Outline: as §1
# [10] = molecular target: GlcNAc(a1-3)Gal(b1-4)GlcNAc
# Outline: as §1
# [11] = molecular target: GlcNAc(a1-6)Gal(b1-4)GlcNAc
# Outline: as §1
# [12] = molecular target: GlcNAc(b1-2)Gal(b1-3)GalNAc
# Outline: as §1
# [13] = molecular target: GlcNAc(b1-2)Gal(b1-3)GlcNAc
# Outline: as §1
# [14] = molecular target: GlcNAc(b1-2)Man(a1-3)[GlcNAc(b1-2)Man(a1-6)]Man(b1-4)GlcNAc(b1-4)GlcNAc
# Outline: as §1
# GlcNAc(b1-3)Gal = molecular target: GlcNAc(b1-3)Gal
# Outline: as §1
# [15] = molecular target: GlcNAc(b1-3)Gal(b1-3)GalNAc
# Outline: as §1
# GlcNAc(b1-3)Gal(b1-4)Glc = molecular target: GlcNAc(b1-3)Gal(b1-4)Glc
# Outline: as §1
# [16] = molecular target: GlcNAc(b1-3)Gal(b1-4)GlcNAc
# Outline: as §1
# [17] = molecular target: GlcNAc(b1-3)Gal(b1-4)GlcNAc(b1-3)Gal(b1-4)GlcNAc
# Outline: as §1
# GlcNAc(b1-3)GalNAc = molecular target: GlcNAc(b1-3)GalNAc
# Outline: as §1
# [18] = molecular target: GlcNAc(b1-3)[GlcNAc(b1-4)][GlcNAc(b1-6)]GlcNAc
# Outline: as §1
# [19] = molecular target: GlcNAc(b1-3)[GlcNAc(b1-6)]Gal(b1-4)GlcNAc
# Outline: as §1
binder,measurement,setting,value
T7P4 (Tuber borchii) (protein) GSHIGPYMSFYASSEDVRTIEEGGRTWLVGRARRADGSWQDIKLDLDNIIGNRDGHLTWGEQNFTQSASDIRFNFEGSNVPVLRAKLRNAAGGEQESDLNLGERLTNNNGDLVFN,glycan array binding signal (z-score),[1],-0.216
same,glycan array binding signal (z-score),[2],-0.222
same,glycan array binding signal (z-score),[3],-0.226
same,glycan array binding signal (z-score),[4],-0.224
same,glycan array binding signal (z-score),[5],-0.221
same,glycan array binding signal (z-score),[6],-0.216
same,glycan array binding signal (z-score),[7],-0.203
same,glycan array binding signal (z-score),Gal3S(b1-3)GalNAc,-0.217
same,glycan array binding signal (z-score),Gal3S(b1-3)GlcNAc,-0.102
same,glycan array binding signal (z-score),[8],-0.221
same,glycan array binding signal (z-score),Gal3S(b1-4)Glc,-0.008
same,glycan array binding signal (z-score),Gal3S(b1-4)Glc6S,-0.219
same,glycan array binding signal (z-score),Gal3S(b1-4)GlcNAc,-0.207
same,glycan array binding signal (z-score),Gal3S(b1-4)GlcNAc6S,-0.215
same,glycan array binding signal (z-score),Gal3S6S(b1-4)GlcNAc,-0.211
same,glycan array binding signal (z-score),Gal3S6S(b1-4)GlcNAc6S,-0.218
same,glycan array binding signal (z-score),Gal4S(b1-4)GlcNAc,-0.202
same,glycan array binding signal (z-score),Gal4S6S(b1-4)GlcNAc,-0.102
same,glycan array binding signal (z-score),Gal6S(b1-4)Glc,-0.193
same,glycan array binding signal (z-score),Gal6S(b1-4)Glc6S,0.094
same,glycan array binding signal (z-score),Gal6S(b1-4)GlcNAc,-0.215
same,glycan array binding signal (z-score),GalNAc(a1-3)Gal,-0.215
same,glycan array binding signal (z-score),GalNAc(a1-3)GalNAc,-0.217
same,glycan array binding signal (z-score),[9],-0.08
same,glycan array binding signal (z-score),GalNAc(b1-3)GalNAc,-0.21
same,glycan array binding signal (z-score),GalNAc(b1-4)GlcNAc,-0.125
same,glycan array binding signal (z-score),Glc(a1-4)Glc,-0.172
same,glycan array binding signal (z-score),Glc(a1-6)Glc(a1-6)Glc,-0.066
same,glycan array binding signal (z-score),Glc(b1-4)Glc,-0.193
same,glycan array binding signal (z-score),Glc(b1-6)Glc,-0.13
same,glycan array binding signal (z-score),GlcA(b1-3)Gal,-0.164
same,glycan array binding signal (z-score),GlcA(b1-6)Gal,-0.212
same,glycan array binding signal (z-score),[10],-0.221
same,glycan array binding signal (z-score),[11],-0.203
same,glycan array binding signal (z-score),[12],0.193
same,glycan array binding signal (z-score),[13],0.204
same,glycan array binding signal (z-score),[14],-0.216
same,glycan array binding signal (z-score),GlcNAc(b1-3)Gal,-0.22
same,glycan array binding signal (z-score),[15],-0.221
same,glycan array binding signal (z-score),GlcNAc(b1-3)Gal(b1-4)Glc,-0.121
same,glycan array binding signal (z-score),[16],-0.219
same,glycan array binding signal (z-score),[17],-0.221
same,glycan array binding signal (z-score),GlcNAc(b1-3)GalNAc,-0.221
same,glycan array binding signal (z-score),[18],-0.209
same,glycan array binding signal (z-score),[19],-0.222
